We go through 37 molecules from the supplement of paper PMC9588766.

Molecules are shown by their SMILES. Structures can show the parent of a compound that is named as a salt. Over roughly 1,900 compounds, “cell viability of compound + 1 nM pemigatinib relative to pemigatinib-only (DMSO) wells” has its median near 0.95; the lowest 2% begin near 0.22. The list shows a part of the results.

The assay has as its system PDC-DUC18828. Put plainly: cell viability of compound + 1 nM pemigatinib relative to pemigatinib-only (DMSO) wells (fraction); PDC-DUC18828 is a patient-derived cholangiocarcinoma cell line; higher = less growth inhibition. The note with it: first compound 1 µM; pemigatinib concentration 1 nM; 72 h. How it is done:
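Selleck Bioactive library screen in the patient-derived FGFR2 fusion-positive ICC cell line PDC-DUC18828 (500 cells/well). Each compound was tested at 1 uM with 1 nM pemigatinib, in triplicate, for 72 h. Viability was read by CellTiter-Glo and normalised to plate DMSO controls. Value is the paper's averaged normalised viability.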
Consider `C=C1C(=O)O[C@H]2[C@H]1CC/C(C)=C/CC[C@@]1(C)O[C@@H]21` [(-)-Parthenolide] + CCN1C(=O)N(c2c(F)c(OC)cc(OC)c2F)Cc2cnc3[nH]c(CN4CCOCC4)cc3c21 [pemigatinib], for which the cell viability was found to be 0.727.
In the case of `COc1ccc(CCC(=O)Nc2nc3ccc(Cl)cc3s2)cc1OC` + CCN1C(=O)N(c2c(F)c(OC)cc(OC)c2F)Cc2cnc3[nH]c(CN4CCOCC4)cc3c21 [pemigatinib] it was 0.927; in that of `CCCCOc1ccc(C(=O)CCN2CCCCC2)cc1` [Dyclonine HCl] + CCN1C(=O)N(c2c(F)c(OC)cc(OC)c2F)Cc2cnc3[nH]c(CN4CCOCC4)cc3c21 [pemigatinib], 1; in that of `C=C1CC[C@H](O)C/C1=C/C=C1\CCC[C@]2(C)[C@@H]([C@H](C)/C=C/[C@H](C)C(C)C)CC[C@@H]12` [Vitamin D2] + CCN1C(=O)N(c2c(F)c(OC)cc(OC)c2F)Cc2cnc3[nH]c(CN4CCOCC4)cc3c21 [pemigatinib], 1.01.
In the case of `Nc1nc(N)c2nc(-c3ccccc3)c(N)nc2n1` [Triamterene] + CCN1C(=O)N(c2c(F)c(OC)cc(OC)c2F)Cc2cnc3[nH]c(CN4CCOCC4)cc3c21 [pemigatinib] it was 0.953.
Next, `Cc1ccc(C(=O)Cn2c3c(sc2=N)CCCC3)cc1` [Pifithrin-α (PFTα)] + CCN1C(=O)N(c2c(F)c(OC)cc(OC)c2F)Cc2cnc3[nH]c(CN4CCOCC4)cc3c21 [pemigatinib]: 0.925; `CC(C)(C)NC(=O)[C@H]1CC[C@H]2[C@@H]3CC[C@H]4NC(=O)C=C[C@]4(C)[C@H]3CC[C@]12C` [Finasteride] + CCN1C(=O)N(c2c(F)c(OC)cc(OC)c2F)Cc2cnc3[nH]c(CN4CCOCC4)cc3c21 [pemigatinib]: 0.925; `C=CC[N+]1([C@H]2C[C@H]3[C@@H]4CC[C@H]5C[C@H](O)[C@@H](N6CCOCC6)C[C@]5(C)[C@H]4CC[C@]3(C)[C@H]2OC(C)=O)CCCC1` [Rocuronium Bromide] + CCN1C(=O)N(c2c(F)c(OC)cc(OC)c2F)Cc2cnc3[nH]c(CN4CCOCC4)cc3c21 [pemigatinib]: 0.955.
For `CC(ONC(=O)c1cc(C(F)(F)F)cc(C(F)(F)F)c1)C(=O)Nc1ccc(Cl)cc1` (configuration not stated) + CCN1C(=O)N(c2c(F)c(OC)cc(OC)c2F)Cc2cnc3[nH]c(CN4CCOCC4)cc3c21 [pemigatinib], the cell viability came to 0.925.
Take `N#CC1(c2ccc(NC(=O)c3cccnc3NCc3ccncc3)cc2)CCCC1` [Apatinib] + CCN1C(=O)N(c2c(F)c(OC)cc(OC)c2F)Cc2cnc3[nH]c(CN4CCOCC4)cc3c21 [pemigatinib]: the cell viability is 0.99.
In the case of `OC[C@@H](O)CN1CCN(c2ccccc2)CC1` [Levodropropizine] + CCN1C(=O)N(c2c(F)c(OC)cc(OC)c2F)Cc2cnc3[nH]c(CN4CCOCC4)cc3c21 [pemigatinib] it was 1.04; in that of `CC[C@H](c1ccc(O)cc1)[C@@H](CC)c1ccc(O)cc1` [Hexestrol] + CCN1C(=O)N(c2c(F)c(OC)cc(OC)c2F)Cc2cnc3[nH]c(CN4CCOCC4)cc3c21 [pemigatinib], 0.936.
In the case of `Cc1c(Nc2ncccc2C(=O)O)cccc1C(F)(F)F` [Flunixin Meglumin] + CCN1C(=O)N(c2c(F)c(OC)cc(OC)c2F)Cc2cnc3[nH]c(CN4CCOCC4)cc3c21 [pemigatinib] it was 0.996.
Consider `CC(=O)OCC(=O)[C@@]1(O)CC[C@H]2[C@@H]3CCC4=CC(=O)C=C[C@]4(C)[C@H]3[C@@H](O)C[C@@]21C` [Prednisolone Acetate] + CCN1C(=O)N(c2c(F)c(OC)cc(OC)c2F)Cc2cnc3[nH]c(CN4CCOCC4)cc3c21 [pemigatinib], for which the cell viability was determined as 0.895.
`COc1ccc(CNc2nc(N3CCC[C@H]3CO)ncc2C(=O)NCc2ncccn2)cc1Cl` [Avanafil] + CCN1C(=O)N(c2c(F)c(OC)cc(OC)c2F)Cc2cnc3[nH]c(CN4CCOCC4)cc3c21 [pemigatinib]: the cell viability came out at 0.962.
On to `COC(=O)N[C@H](C(=O)N1CC2(CC2)C[C@H]1c1nc(-c2ccc3c(c2)C(F)(F)c2cc(-c4ccc5[nH]c([C@@H]6[C@H]7CC[C@H](C7)N6C(=O)[C@@H](NC(=O)OC)C(C)C)nc5c4)ccc2-3)c[nH]1)C(C)C` [Ledipasvir (GS5885)] + CCN1C(=O)N(c2c(F)c(OC)cc(OC)c2F)Cc2cnc3[nH]c(CN4CCOCC4)cc3c21 [pemigatinib], for which the cell viability was determined as 0.936.
Next, `CN1CCN(C(=O)c2cc3cc(Cl)ccc3[nH]2)CC1` + CCN1C(=O)N(c2c(F)c(OC)cc(OC)c2F)Cc2cnc3[nH]c(CN4CCOCC4)cc3c21 [pemigatinib]: 0.897; `Nc1nc(N)c2nc(-c3cccc(O)c3)c(-c3cccc(O)c3)nc2n1` + CCN1C(=O)N(c2c(F)c(OC)cc(OC)c2F)Cc2cnc3[nH]c(CN4CCOCC4)cc3c21 [pemigatinib]: 0.967.
In the case of `Cn1cnc2c(F)c(Nc3ccc(Br)cc3Cl)c(C(=O)NOCCO)cc21` [Selumetinib (AZD6244)] + CCN1C(=O)N(c2c(F)c(OC)cc(OC)c2F)Cc2cnc3[nH]c(CN4CCOCC4)cc3c21 [pemigatinib] it was 0.787; in that of `CN(Cc1cc(Br)cc(Br)c1N)C1CCCCC1` [Bromhexine HCl] + CCN1C(=O)N(c2c(F)c(OC)cc(OC)c2F)Cc2cnc3[nH]c(CN4CCOCC4)cc3c21 [pemigatinib], 1.07.
Next, `C[C@H](CS)C(=O)N1CCC[C@H]1C(=O)O` [Captopril] + CCN1C(=O)N(c2c(F)c(OC)cc(OC)c2F)Cc2cnc3[nH]c(CN4CCOCC4)cc3c21 [pemigatinib]: 1.03; `NCCc1ccc(O)c(O)c1` [Dopamine HCl] + CCN1C(=O)N(c2c(F)c(OC)cc(OC)c2F)Cc2cnc3[nH]c(CN4CCOCC4)cc3c21 [pemigatinib]: 0.308; `CC(=O)Oc1ccc(C(c2ccc(OC(C)=O)cc2)c2ccccn2)cc1` [Bisacodyl] + CCN1C(=O)N(c2c(F)c(OC)cc(OC)c2F)Cc2cnc3[nH]c(CN4CCOCC4)cc3c21 [pemigatinib]: 0.89.
In the case of `CCOC(=O)CC(=O)N1CCSC1COc1ccccc1OC` (configuration not stated) [Moguisteine] + CCN1C(=O)N(c2c(F)c(OC)cc(OC)c2F)Cc2cnc3[nH]c(CN4CCOCC4)cc3c21 [pemigatinib], the cell viability was 0.855.
In the case of `CCC(C)(C)C(=O)O[C@H]1C[C@@H](C)C=C2C=C[C@H](C)[C@H](CC[C@@H]3C[C@@H](O)CC(=O)O3)[C@H]21` [Simvastatin] + CCN1C(=O)N(c2c(F)c(OC)cc(OC)c2F)Cc2cnc3[nH]c(CN4CCOCC4)cc3c21 [pemigatinib] it was 0.865.
As for `O=C(CSc1nc2c(c(=O)n1-c1ccccc1)SCC2)Nc1ccc(-c2ccccc2)cn1` + CCN1C(=O)N(c2c(F)c(OC)cc(OC)c2F)Cc2cnc3[nH]c(CN4CCOCC4)cc3c21 [pemigatinib], the cell viability came out at 1.
In the case of `CN(C[C@@H]1COCCO1)S(=O)(=O)Nc1ccc2ccc3ncc(-c4cnn(C)c4)cc3c(=O)c2c1` + CCN1C(=O)N(c2c(F)c(OC)cc(OC)c2F)Cc2cnc3[nH]c(CN4CCOCC4)cc3c21 [pemigatinib] it was 0.832.
Next, `CCCc1nn(C)c2c(=O)[nH]c(-c3cc(S(=O)(=O)N4CCN(C)CC4)ccc3OCC)nc12` [Sildenafil Citrate] + CCN1C(=O)N(c2c(F)c(OC)cc(OC)c2F)Cc2cnc3[nH]c(CN4CCOCC4)cc3c21 [pemigatinib]: 1.02; `N#CC[C@H](C1CCCC1)n1cc(-c2ncnc3[nH]ccc23)cn1` + CCN1C(=O)N(c2c(F)c(OC)cc(OC)c2F)Cc2cnc3[nH]c(CN4CCOCC4)cc3c21 [pemigatinib]: 0.946.
Consider `CC(C)(O)CC(=O)NCCn1ccc2ncnc(Nc3ccc(Oc4cccc(C(F)(F)F)c4)c(Cl)c3)c21` + CCN1C(=O)N(c2c(F)c(OC)cc(OC)c2F)Cc2cnc3[nH]c(CN4CCOCC4)cc3c21 [pemigatinib], for which the cell viability was found to be 0.847.
In the case of `C[C@H](Nc1ncnc2nc[nH]c12)c1cc2cccc(Cl)c2c(=O)n1-c1ccccc1` + CCN1C(=O)N(c2c(F)c(OC)cc(OC)c2F)Cc2cnc3[nH]c(CN4CCOCC4)cc3c21 [pemigatinib] it was 0.793; in that of `CC(NCCc1ccc(O)cc1)C(O)c1ccc(O)cc1` (configuration not stated) [Ritodrine HCl] + CCN1C(=O)N(c2c(F)c(OC)cc(OC)c2F)Cc2cnc3[nH]c(CN4CCOCC4)cc3c21 [pemigatinib], 0.937.
Next, `Cc1c(C(=O)N2CCOc3ccc(-c4ccc(N)nc4)cc3C2)ccc(S(C)(=O)=O)c1F` + CCN1C(=O)N(c2c(F)c(OC)cc(OC)c2F)Cc2cnc3[nH]c(CN4CCOCC4)cc3c21 [pemigatinib]: 0.732; `O=S(=O)(c1cccc2cnccc12)N1CCCNCC1` [Fasudil (HA-1077) HCl] + CCN1C(=O)N(c2c(F)c(OC)cc(OC)c2F)Cc2cnc3[nH]c(CN4CCOCC4)cc3c21 [pemigatinib]: 1.05; `COc1cc2nc(N3CCCN(C)CC3)nc(NC3CCN(Cc4ccccc4)CC3)c2cc1OC` + CCN1C(=O)N(c2c(F)c(OC)cc(OC)c2F)Cc2cnc3[nH]c(CN4CCOCC4)cc3c21 [pemigatinib]: 0.935.
In the case of `O=C(c1ccc(F)c(F)c1Nc1ccc(I)cc1F)N1CC(O)([C@@H]2CCCCN2)C1` [Cobimetinib (GDC-0973, RG7420)] + CCN1C(=O)N(c2c(F)c(OC)cc(OC)c2F)Cc2cnc3[nH]c(CN4CCOCC4)cc3c21 [pemigatinib] it was 0.592.
For `CC(C)c1cnn2c(NCc3ccccc3)cc(NCCCCCCN)nc12` + CCN1C(=O)N(c2c(F)c(OC)cc(OC)c2F)Cc2cnc3[nH]c(CN4CCOCC4)cc3c21 [pemigatinib], the cell viability stood at 1.06.
